Assay results: paper PMC4336329 (PLoS ONE, 2015)
Screen size: about 310,000 compounds; about 14,000 (4.5%) showed an effect of 50% or more. Effects have a minus sign here. This is one part of the list.

target: human ether-à-go-go-related gene (hERG) potassium channel (human, UniProt Q12809); assay: primary screen, population patch clamp on CHO cells stably expressing hERG
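Note: peak tail current of the secondary pulse compared with the same well before compound.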

Sequence of human ether-à-go-go-related gene (hERG) potassium channel (Q12809 whole entry, looked up): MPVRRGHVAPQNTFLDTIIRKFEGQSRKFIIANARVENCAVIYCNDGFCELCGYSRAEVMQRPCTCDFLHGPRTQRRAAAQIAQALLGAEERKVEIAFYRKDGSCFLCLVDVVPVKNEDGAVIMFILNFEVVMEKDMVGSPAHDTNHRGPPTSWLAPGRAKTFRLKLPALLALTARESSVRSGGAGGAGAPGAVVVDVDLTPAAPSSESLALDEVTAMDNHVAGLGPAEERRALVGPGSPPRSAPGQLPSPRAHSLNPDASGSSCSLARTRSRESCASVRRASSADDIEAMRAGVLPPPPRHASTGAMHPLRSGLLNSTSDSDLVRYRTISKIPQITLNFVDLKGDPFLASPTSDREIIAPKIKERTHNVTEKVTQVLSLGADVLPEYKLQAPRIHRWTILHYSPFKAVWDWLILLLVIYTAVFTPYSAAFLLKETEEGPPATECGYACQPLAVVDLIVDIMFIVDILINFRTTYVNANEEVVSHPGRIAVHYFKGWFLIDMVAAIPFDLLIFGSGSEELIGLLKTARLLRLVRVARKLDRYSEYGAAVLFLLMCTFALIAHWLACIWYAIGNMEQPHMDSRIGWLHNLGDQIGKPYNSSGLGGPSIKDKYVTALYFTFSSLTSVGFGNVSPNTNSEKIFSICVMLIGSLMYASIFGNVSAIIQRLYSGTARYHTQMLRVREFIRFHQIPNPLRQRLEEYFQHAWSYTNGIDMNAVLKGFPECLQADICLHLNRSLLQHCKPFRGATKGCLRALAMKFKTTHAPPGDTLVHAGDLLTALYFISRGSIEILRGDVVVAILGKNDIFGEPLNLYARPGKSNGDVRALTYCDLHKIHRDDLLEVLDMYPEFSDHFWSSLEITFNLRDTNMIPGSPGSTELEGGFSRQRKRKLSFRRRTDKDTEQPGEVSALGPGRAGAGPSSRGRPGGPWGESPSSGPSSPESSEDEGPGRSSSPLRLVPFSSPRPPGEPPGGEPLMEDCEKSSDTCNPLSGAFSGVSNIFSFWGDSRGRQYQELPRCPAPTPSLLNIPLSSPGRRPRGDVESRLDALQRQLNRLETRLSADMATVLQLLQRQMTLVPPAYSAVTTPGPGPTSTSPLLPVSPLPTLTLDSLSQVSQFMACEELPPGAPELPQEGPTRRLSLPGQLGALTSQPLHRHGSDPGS

Row | SMILES | hERG current change (%, negative = inhibition) at 10uM [%]
1 | CCOc1ncccc1C(=O)OCc1cccc([N+](=O)[O-])c1 | 10.2
2 | CCN(CC)CCNC(=O)Cc1nn(Cc2ccccc2)c(=O)c2ccccc12 | -29.1
3 | CNC(=O)O/N=C(\N)Cc1csc2ccc(Cl)cc12 | -0.857
4 | COC(=O)c1c(NS(=O)(=O)c2ccc3ccccc3c2)sc2c1CCCC2 | 7.85
5 | O=C(Cc1cccs1)NNC(=S)NCc1ccc(Cl)cc1 | 10.1
6 | Cc1c(C(=O)OC(C)C)[nH]c2c1C(=O)CC(C)(C)C2 | -4.63
7 | FC(F)(F)c1nnc(-c2ccccc2)nc1Sc1ccccc1 | 13
8 | CC(OC(=O)c1ccc2c(=O)n3c(nc2c1)CCC3)C(=O)NC1CCCCC1C (centres unmarked) | 3.36
9 | COC(=O)c1ccc(C23CC4(C2)[C@H](CN(CC2CCCCC2)[C@@H]4c2ccccc2)C3c2ccc(Cl)nc2)cc1 (some centres unmarked) | 11.7
10 | CCOCCCNC(=O)C1CCC(=O)N1CCc1ccccc1 (centres unmarked) | 5.03
11 | COc1ccc(C(=O)c2ccc(Cl)cc2)c2ccccc12 | 8.23
12 | CCS(=O)(=O)C1=NN2C(=N)/C(=C\c3ccc(OC(=O)c4ccco4)cc3)C(=O)N=C2S1 | 17.5
13 | O=C1NC(=S)SC1=C1CCCC1 | 24.3
14 | C/C(=N\NS(=O)(=O)c1cccc([N+](=O)[O-])c1)c1cccnc1 | 13.6
15 | CC(NC(=O)c1ccco1)C(c1cccs1)N1CCN(c2ccc(F)cc2)CC1 (centres unmarked) | -8.06
16 | CCOC(=O)C1=C(C)NC2=C(C(=O)CC(C)(C)C2)C1c1ccc(N(C)C)cc1 (centres unmarked) | 9.64
17 | CC(C)(C)n1nnnc1C(c1ccc(F)cc1)N(Cc1ccc(F)cc1)Cc1ccco1 (centres unmarked) | 1.97
18 | CNS(=O)(=O)c1ccc(NC(=O)C(CCSC)NC(N)=O)cc1 (centres unmarked) | 8.56
19 | CC(C)CC(=O)N=C1SC2CS(=O)(=O)CC2N1Cc1ccccc1 (centres unmarked) | 6.86
20 | O=C(CCCSc1nc2ccccc2s1)NC1=NCCS1 | -4.71
21 | COc1ccc(S(=O)(=O)N2CCN(C/C=C/c3ccccc3)CC2)cc1F | -30.1
22 | Cl.OC(CCN1CCCC1)(c1ccccc1)C1CCCCC1 (centres unmarked) | -12.4
23 | COc1ccc(NC(=S)N2CCN(S(C)(=O)=O)CC2)cc1OC | 4.68

Row | SMILES | hERG current change (%, negative = inhibition) at 10uM [%]
24 | Cc1cc(S(=O)(=O)N2CCCC2)ccc1OCC(=O)N1CCC(C(N)=O)CC1 | 19.4
25 | CC1=C(C)CC(C(=O)NCc2ccccc2F)C(C(=O)O)C1 (centres unmarked) | 0.402
26 | CCOC(=O)N1CCC(=NNC(=O)c2ccccc2F)CC1 | -3.83
27 | CC(C)NC(=S)N1CCN(S(=O)(=O)c2cccc(C(F)(F)F)c2)CC1 | -1.79
28 | CCOC(=O)Cc1csc(NC(=O)Nc2ccc(OC(F)(F)F)cc2)n1 | 18.6
29 | CCC(C(=O)NC1CCCCC1)n1c(SCc2cccc(C)c2)nc2ccncc21 (centres unmarked) | -28.4
30 | CC(=Nc1ccc(C)cc1)c1sc2ccccc2c1O | 4.53
31 | Cc1ccc([C@@H]2CC=C(C(=O)O)[C@H](c3ccc(F)cc3)N2S(=O)(=O)c2ccc(C)cc2)cc1 | 17.4
32 | CN(CC(=O)Nc1ccccc1F)Cc1cccs1 | 15.6
33 | O=c1nc(C(F)(F)F)nc2ccccn12 | 0.714
34 | Cc1ccc(Cn2c(N3CCN(CCO)CC3)nc3c2c(=O)n(C)c(=O)n3C)cc1 | -4.08
35 | COC(=O)C1=C(C)NC(C)=C(C(=O)OC)C1C(=O)OCc1nc2cc(C(=O)OC)ccc2c(=O)[nH]1 | -18.5
36 | COc1ccc(NC(=O)/C(=C\c2ccncc2)NC(=O)c2ccccc2)cc1 | -12.5
37 | Cc1sc2ncn(CC(=O)NCCCC(=O)N3CCC4(CC3)OCCO4)c(=O)c2c1C | 5.76
38 | Cc1nn(Cc2ccccc2)c(C)c1C=C1C(=O)NC(=O)NC1=O | 15
39 | CCOC(=O)c1c(Nc2ccc(Cl)cc2)sc(/C=C2\C=Nc3ccccc32)c1O | 5.52
40 | CC(C)(C)NC(=O)CSCc1c(Cl)cccc1Cl | -16.5
41 | N#CCCN(Cc1ccccc1)C(=S)Nc1ccc(F)cc1 | 6.43
42 | O=C(c1ccccc1)N1CCN(S(=O)(=O)c2cccc(NS(=O)(=O)c3ccccc3)c2)CC1 | -0.537
43 | Cc1ccc2c(c1)cc(CN(Cc1ccco1)C(=O)COc1ccccc1)c1nnnn12 | 9.43
44 | COc1ccc(OC)c(S(=O)(=O)N2CCC(C(=O)N3CCOCC3)CC2)c1 | 15.7
45 | CCCNc1nc2c(c(=O)n(C)c(=O)n2C)n1CCCc1ccccc1 | -11.3
46 | NC1=NC(=O)C(Cc2cccc(Cl)c2Cl)S1 (centres unmarked) | 4.99

Row | SMILES | hERG current change (%, negative = inhibition) at 10uM [%]
47 | CSc1nsc(SCC(=O)Nc2ccc(C(=O)O)cc2)n1 | -7.26
48 | CN(CC1CCCN(CCc2cccc(C(F)(F)F)c2)C1)C(=O)c1ccco1 (centres unmarked) | -69.2
49 | Cc1nnc(N2C(=O)c3ccc(Br)cc3C2=O)s1 | 25.6
50 | COc1ccc(O)c(/C=N/NC(=O)c2cccc(N3CCCC3=O)c2)c1 | 9.17
51 | COc1ccccc1NC(=O)CN1CCN(C(=O)C2CCCO2)CC1 (centres unmarked) | 0.971
52 | CCCOc1ccc(N2C(=O)C/C(=C\c3ccccc3)C2=O)cc1 | 20.1
53 | CC(=O)Nc1ccc(OS(=O)(=O)c2ccc(C)cc2C)cc1 | -2.86
54 | O=c1[nH]cnc2c([N+](=O)[O-])cccc12 | 12.2
55 | Cc1cccc(NC(=O)C2CC(=O)OC23CCCCC3)c1 (centres unmarked) | -0.121
56 | COc1ccc(C(C(=O)NC2CCCCC2)N2CCC3(CC2)OCCO3)cc1 (centres unmarked) | -8.32
57 | O=C(Cn1c2[n+](c3ccc(C(F)(F)F)cc31)CCCCC2)Nc1ccc(Br)cc1.[Cl-] | 19
58 | Cc1ccc(-c2noc(-c3ccccc3C(=O)NCC3CCCO3)n2)cc1 (centres unmarked) | -18.6
59 | COc1ccccc1Oc1ccc2c(c1)C(=O)N(c1ccccc1)C2=O | -3.59
60 | COc1cc(S(=O)(=O)Nc2cccc(C)c2)ccc1NC(=O)c1cccnc1 | 18.7
61 | Cc1nnc(Nc2ccc3c(c2)OCO3)c2ccccc12 | -7.51
62 | CN(C)CCNC(=O)/C(=C/c1ccc(-c2cccc(Cl)c2)o1)NC(=O)c1ccccc1 | -72
63 | CC(C)CCNC(=O)CCCC1=NS(=O)(=O)c2ccccc2N1 | -5.75
64 | Cc1cc(NC(=O)CSc2nc3cc(C(=O)NCCCOC(C)C)ccc3c(=O)n2Cc2ccco2)no1 | -3.13
65 | Cc1ccsc1/C=C1\C(=O)NC(=S)N(C)C1=O | 15.3
66 | COc1ccc(OCC(=O)NCCCCCCNC(=O)COc2ccc(OC)cc2)cc1 | 10.6
67 | Cc1cccc(C(=O)NCCCNC(=O)c2ccccn2)c1 | 12.3
68 | COC(=O)COc1ccc(S(=O)(=O)Nc2ccccc2SC)cc1 | -17.7
69 | Cc1cc2ccccc2c(=O)n1CC(=O)NCC(=O)N1CCN(c2ccccc2)CC1 | -23.6

Row | SMILES | hERG current change (%, negative = inhibition) at 10uM [%]
70 | O=c1c2ccccc2[nH]c(=S)n1Cc1cccs1 | -45.2
71 | O=C(Nc1ccc(Cl)cc1)N1CCN(C(=O)C2CCCO2)CC1 (centres unmarked) | 14.9
72 | O.O=P1(N(CCCl)CCCl)NCCCO1 (centres unmarked) | 16.5
73 | Nn1c(SCC(=O)NCCCc2ccccc2)nnc1-c1cccnc1 | 20.1
74 | CCOC(=O)C1=C(COC(=O)/C=C/c2cccc(Br)c2)NC(=O)NC1C (centres unmarked) | -16.9
75 | NC(=S)NN=C1C2CC3CC(C2)CC1C3 | 1.51
76 | COc1cc(/C=C(\C#N)C(=O)NCC2CCCO2)ccc1O (centres unmarked) | -12.7
77 | Cc1cccc(N2CCN(C(=O)N3CCOCC3)CC2)c1C | 10.9
78 | O=C(CCNC(=O)c1ccco1)Nc1ccc(Cl)c(C(F)(F)F)c1 | -16.3
79 | CCOc1ccc(S(=O)(=O)N2CCCC(C(=O)NCc3ccccn3)C2)cc1Cl (centres unmarked) | -27.6
80 | O=C(CS(=O)CC(=O)N(c1cccc(F)c1)C(C(=O)NC1CCCCC1)c1ccco1)Nc1ccc(F)cc1 (centres unmarked) | -10.3
81 | C=CCn1c(N)c(-c2nc3ccccc3n2C)sc1=S | 2.96
82 | CC(=O)N1CCN(Cc2nc3cc(NC(=O)c4ccc(Cl)cc4)ccc3n2C)CC1 | -65.8
83 | Cc1cc(OC(C)C(=O)N(Cc2cccs2)C2CCS(=O)(=O)C2)ccc1Cl (centres unmarked) | -34.5
84 | CS(=O)(=O)NC1CCN(Cc2ccccc2)CC1 | -2.95
85 | COC(=O)c1cn(S(=O)(=O)c2ccccc2)c2ccccc12 | 13
86 | CCN(CC)S(=O)(=O)c1ccc(N2CCN(C)CC2)c(NC(=O)c2cc(=O)c3ccccc3o2)c1 | -18.4
87 | Cn1c(=O)c2c(nc(Oc3ccccc3Cl)n2C)n(C)c1=O | 5.32
88 | Cc1cc(=O)[nH]c(NN)n1 | 6.39
89 | CCC(C)(C)NC(=O)C(c1ccncc1)N(C(=O)c1sc(C)nc1C)c1ccc(F)cc1 (centres unmarked) | 30.6
